# Assay results published in article PMC4336329 (PLoS ONE, 2015).
# Among all 310,000 compounds or so, about 2,200 (0.71%) showed an effect of 50% or more. The effect is printed as a negative number. Some of the results follow.
# Target: human ether-à-go-go-related gene (hERG) potassium channel (human, UniProt Q12809)
# Test: primary screen, population patch clamp on CHO cells stably expressing hERG
# Sequence of human ether-à-go-go-related gene (hERG) potassium channel (Q12809 whole entry, looked up): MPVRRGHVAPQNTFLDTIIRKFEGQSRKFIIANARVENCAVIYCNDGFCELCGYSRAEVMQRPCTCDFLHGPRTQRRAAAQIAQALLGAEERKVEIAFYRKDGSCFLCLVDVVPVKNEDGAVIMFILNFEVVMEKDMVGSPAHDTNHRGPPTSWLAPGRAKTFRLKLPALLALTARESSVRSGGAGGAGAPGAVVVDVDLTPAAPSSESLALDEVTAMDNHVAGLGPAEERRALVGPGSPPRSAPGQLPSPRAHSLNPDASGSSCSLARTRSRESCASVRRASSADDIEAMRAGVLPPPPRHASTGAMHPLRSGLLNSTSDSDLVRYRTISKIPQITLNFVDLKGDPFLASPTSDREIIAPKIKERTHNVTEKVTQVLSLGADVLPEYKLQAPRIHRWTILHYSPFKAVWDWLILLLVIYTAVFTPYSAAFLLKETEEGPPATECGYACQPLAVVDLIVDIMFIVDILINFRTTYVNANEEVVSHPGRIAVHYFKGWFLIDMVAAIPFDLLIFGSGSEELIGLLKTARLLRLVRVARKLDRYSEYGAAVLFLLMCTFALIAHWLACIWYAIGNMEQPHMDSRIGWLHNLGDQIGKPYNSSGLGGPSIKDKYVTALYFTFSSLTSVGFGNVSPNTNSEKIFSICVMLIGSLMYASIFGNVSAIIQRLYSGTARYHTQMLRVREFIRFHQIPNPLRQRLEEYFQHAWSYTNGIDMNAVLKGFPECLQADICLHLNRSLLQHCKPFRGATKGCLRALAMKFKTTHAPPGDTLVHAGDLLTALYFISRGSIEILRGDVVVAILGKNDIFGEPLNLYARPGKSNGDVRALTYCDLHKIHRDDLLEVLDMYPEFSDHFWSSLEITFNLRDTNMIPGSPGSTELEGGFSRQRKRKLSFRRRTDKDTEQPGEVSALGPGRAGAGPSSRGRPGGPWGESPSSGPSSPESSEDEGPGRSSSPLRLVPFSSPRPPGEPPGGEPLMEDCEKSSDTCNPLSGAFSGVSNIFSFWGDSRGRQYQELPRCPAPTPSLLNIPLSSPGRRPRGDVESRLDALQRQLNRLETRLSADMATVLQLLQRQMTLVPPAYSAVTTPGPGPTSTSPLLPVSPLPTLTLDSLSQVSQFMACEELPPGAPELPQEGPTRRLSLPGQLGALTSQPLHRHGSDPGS
row,Structure (SMILES),"hERG current change (%, negative = inhibition) at 1uM"
1,CCCCNC(=O)Cn1c2c(c(-c3ccccc3Cl)cc1=O)CCC2,2.56%
2,O=C(OCC(=O)N1CCCC1=O)c1cc(S(=O)(=O)N2CCOCC2)ccc1Cl,1.6%
3,CCOC(=O)[C@H]1[C@H]2COc3ccc(Br)cc3[C@@H]2N2C(=O)c3cc(F)c(F)cc3NC(=O)[C@@]12C,3.49%
4,CCN(CC)C(=O)c1ccc(COc2ccccc2Br)o1,5.54%
5,O=C(CCc1ccccc1)Nc1cc(C(F)(F)F)ccc1Cl,9.41%
6,O=S(=O)(NCC1(N2CCOCC2)CCCCC1)c1ccc(Cl)cc1C(F)(F)F,13.7%
7,Cc1cccn2c(=O)c3cc(C(=O)N4CCCCC4C)sc3nc12 (stereo not drawn),17.6%
8,CCCn1c(SCC(=O)N2CCN(CC)CC2)nc2c1c(=O)n(C)c(=O)n2C,15.6%
9,CCOC(=O)CNC(=O)CSc1nnc(-c2cccc(OC)c2)n1CC,8.79%
10,Cc1cc(-c2n[nH]c(=S)n2/N=C/c2cccs2)n[nH]1,8.9%
11,O=C(O)C1C2C=CC(C2)C1C(=O)OCc1ccccc1 (stereo not drawn),9.31%
12,COCCCNC(=O)c1c(NC(=O)c2ccccc2)n(Cc2ccccc2)c2nc3ccccc3nc12,13.6%
13,COc1ccccc1C(=O)N1CCN(CCNC(=O)C(=O)Nc2ccc(Br)c(C)c2)CC1,-10.5%
14,COc1ccc(OC)c(C(=O)COC(=O)CNC(=O)C2CCCCC2)c1,12%
15,COc1ccc(-c2nnn(CC(=O)N(Cc3cccs3)C(C)C(=O)NC3CCCC3)n2)cc1OC (stereo not drawn),-7.65%
16,CC(C)N(CCn1c(SCC(=O)N2CC(=O)Nc3ccccc32)nc2ccccc2c1=O)C(C)C,-72.5%
17,CCCNC(=O)NC(=O)CSc1ncc(C(F)(F)F)cc1Cl,12.2%
18,Br.CCCCn1c(=N)n(CC(=O)c2ccc(OC)cc2)c2ccccc21,-62.2%
19,CCCn1c(SCC(=O)N2CCCc3ccccc32)nc2c1c(=O)n(C)c(=O)n2C,-2.63%
20,COC(=O)c1c(N2C(=O)[C@H]3[C@@H](C2=O)[C@]2(C(=O)Nc4c(C)cc(C)cc42)N2CCC[C@@H]32)sc(C)c1C,12.5%
21,CC(C)N=C(Nc1cccnc1)c1ccccc1,15.7%
22,CC(C)Cn1c(/C=C/c2ccccc2)nc2ccccc21,3.22%
23,Cc1c(N=c2scc(-c3ccccc3)n2CCO)c(=O)n(-c2ccccc2)n1C,6.87%
24,COc1ccc(C(=O)N2CCN(c3ccc(NC(=O)Cc4ccccc4)cc3)CC2)cc1,-3.31%
25,CCCc1nc(N2CCN(C)CC2)c2sc(=S)n(-c3ccccc3)c2n1,5.19%
26,CC(C)OC(=O)C(C)Nc1ccc(F)c(Cl)c1 (stereo not drawn),13%
27,COc1ccc(-n2c(=O)c3ccccc3c3ccccc3c2=O)cc1,12.4%

row,Structure (SMILES),"hERG current change (%, negative = inhibition) at 1uM"
1,COc1ccc(S(=O)(=O)NCc2cc(-c3ccccc3Cl)no2)cc1,16.2%
2,Cc1ccc(S(=O)(=O)/C=C2\NC(=O)CS2)cc1,3.73%
3,Cn1cc(C(=O)NP(=O)(N2CCOCC2)N2CCOCC2)c2ccccc21,13.4%
4,Cc1ccc(N2C(=O)N3[C@H](c4cccc(C)c4)[C@@H]4C(=O)N(Cc5ccccc5)C(=O)[C@@H]4[C@]3(C)C2=O)cc1,7.91%
5,CCc1nnc(NC(=O)c2nc3nccc(C)n3n2)s1,4.12%
6,COc1ccc(OCCC(=O)OCC(=O)Nc2cccc(S(=O)(=O)N3CCOCC3)c2)cc1,13.9%
7,O=C(COC(=O)CCOc1ccccc1)NCCC1=CCCCC1,15.8%
8,Clc1ccc(CSc2nnc(-c3c[nH]c4ccccc34)o2)cc1,12.1%
9,Cc1csc(NC(=O)CSc2nc3nc(C)cc(C)n3n2)n1,9.96%
10,Cc1ccc(C(=O)NCC(=O)OCC(=O)Nc2cccc(S(=O)(=O)N3CCCC3)c2)cc1C,-2.74%
11,Br.Cc1nn2cc(-c3ccc(Cl)cc3)nc2s1,2.28%
12,Cc1cc(C(=O)Nc2ccccc2C#N)n(-c2ccccc2)n1,6.6%
13,CC(NC(=O)COc1ccccc1)C(c1ccccc1)N1CCN(C)CC1 (stereo not drawn),-4.03%
14,Cc1cccc(Oc2cc(NC(=O)c3ccccc3)cc([N+](=O)[O-])c2)c1,16.7%
15,Cc1ccc(S(=O)(=O)N2CCOCC2)cc1C(=O)Nc1cccc(S(=O)(=O)N2CCCC2)c1,10.3%
16,C[C@@H]1[C@@H](Sc2ccccc2)CC(=O)O[C@@H]1c1ccc(-c2ccccc2)cc1,4.82%
17,Cc1ccc(S(=O)(=O)N(Cc2n[nH]c(=S)n2-c2ccccc2)c2ccccc2)cc1,14.1%
18,COc1ccc(NC(=O)NN(C(=O)c2ccccc2)C(C)(C)C)cc1,3.54%
19,COc1ccc(NS(=O)(=O)c2cccc(C(=O)NCCCN3CCCC3=O)c2)cc1,24%
20,O=S(=O)(c1ccccc1)N1CCN=C1SCc1ccccc1,9.96%
21,O=C(CCCCn1c(=O)c2ccccc2n(CC(=O)NC2CCCC2)c1=O)NCc1ccco1,-3.02%
22,O=C(Nc1ccnn1C1CCN(Cc2cccc(OCCO)c2)CC1)C1CCCC1,-2.81%
23,O=C(Nc1ccc(F)cc1F)c1ccc2nc(N3CCOCC3)sc2c1,12.2%
24,COc1cc(NC(=O)c2cccnc2)c(OC)cc1NC(=O)c1ccc(Br)cc1,20%
25,O=C(CN(c1ccccc1)S(=O)(=O)c1ccc(F)cc1)NC1CCS(=O)(=O)C1 (stereo not drawn),9.8%
26,CCOCCCNC(=S)N1C2CCC1CC(NC(=O)Nc1ccc(C(=O)OCC)cc1)C2 (stereo not drawn),11.6%
27,COc1ccc(-c2coc3cc(OC)cc(OC)c3c2=O)cc1,16.9%
